Measured values taken from publication PMC7129916 (Clinical Microbiology and Infection, 2015).
Read-outs that look alike come from different tables or passages of the source.

How the values were obtained:
[1] = test system: invasive GAS isolates; format: cell-based, S. pyogenes
[2] = test system: Enterococcus spp. (ESP); format: cell-based
[3] = test system: Viridans group streptococci (VGS); format: cell-based; conditions: Penicillin-R (28)
[4] = test system: Enterobacteriaceae (ENT); format: cell-based

SMILES	susceptibility of all isolates [1]	% inhibited at ≤ 1 mg/L ([2]; Van A (520))	% inhibited at ≤ 1 mg/L ([2]; Van B (95))	% inhibited at ≤ 1 mg/L [3]	% inhibited at ≤ 1 mg/L [4]
CC1(C)S[C@@H]2[C@H](NC(=O)Cc3ccccc3)C(=O)N2[C@H]1C(=O)O [penicillin]	fully susceptible				
CN(C)c1cc(NC(=O)CNC(C)(C)C)c(O)c2c1C[C@H]1C[C@H]3[C@H](N(C)C)C(O)=C(C(N)=O)C(=O)[C@@]3(O)C(O)=C1C2=O [tigecycline]		100%	100%	100%	82%
